According to PMC12820563, “FoxP3 forms a head-to-head dimer in vivo and stabilizes its multimerization on adjacent microsatellites”:
The list shows a part of the results.

What follows are sequences tested against T1, MBP-FoxP1dN (Mus musculus, UniProt P58462 326-579) (assay: PD-seq (MBP pull-down with sequencing); 20 mM Tris-HCl pH 7.5, 100 mM NaCl, 1.5 mM MgCl2, 0.4 uM protein, 0.1 uM dsDNA library, 30 min, room temperature, amylose pull-down; high values mean tight binding). Conditions: protein: recombinant; tags: His6-MBP; chain copies: 2; dsDNA, one strand shown.
T1 sequence: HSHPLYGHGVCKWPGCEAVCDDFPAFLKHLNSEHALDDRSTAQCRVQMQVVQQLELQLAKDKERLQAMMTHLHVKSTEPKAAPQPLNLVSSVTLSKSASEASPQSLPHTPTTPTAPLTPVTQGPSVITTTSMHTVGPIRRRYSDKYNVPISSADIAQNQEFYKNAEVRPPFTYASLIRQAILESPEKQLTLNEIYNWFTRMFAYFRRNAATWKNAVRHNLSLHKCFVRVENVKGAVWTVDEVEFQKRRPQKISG
Procedure, shortened: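 Amylose resin was used to capture complexes formed during 30 min at room temperature in Tris pH 7.5 buffer with NaCl and MgCl2 between 0.4 µM His6-MBP-tagged mouse FoxP3 or FoxP1 fragment lacking the N-terminus, expressed in E. coli, and 0.1 µM Klenow-filled double-stranded degenerate DNA library. After three washes, the DNA was released with proteinase K, barcoded by PCR and sequenced on Illumina. Binding is pooled-replicate reads-per-million enrichment, pull-down over input.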

| Sequence | binding signal |
| --- | --- |
| GATGATTGTTCTCCCAGCTGATGAATTCAATGTCTCGAGTAAACAAATTTTCCTAATCTTTCTGTTCAAGCGCCATCTAC | 0.812 RPM ratio (pull-down/input) |
| GATGATTGTTCTCCCAGCTGATGAATTCGCTGTTTCGAGTAAACAAATTTTCCTAATCTTTCTGTTCAAGCGCCATCTAC | 1.03 RPM ratio (pull-down/input) |
| GATGATTGTTCTCCCAGCTGATGAATTTATGAAATCGAGTAAACAAATTTTCCTAATCTTTCTGTTCAAGCGCCATCTAC | 1.18 RPM ratio (pull-down/input) |
| GATGATTGTTCTCCCAGCTGATGAATTATCATGGTCGAGTAAACAAATTTTCCTAATCTTTCTGTTCAAGCGCCATCTAC | 1.02 RPM ratio (pull-down/input) |
| GATGATTGTTCTCCCAGCTGATGAATTCCCAAAGTCGAGTAAACAAATTTTCCTAATCTTTCTGTTCAAGCGCCATCTAC | 0.748 RPM ratio (pull-down/input) |
| GATGATTGTTCTCCCAGCTGATGAATTCAGATCGTCGAGTAAACAAATTTTCCTAATCTTTCTGTTCAAGCGCCATCTAC | 0.799 RPM ratio (pull-down/input) |
| GATGATTGTTCTCCCAGCTGATGAATTATCCCCGTCGAGTAAACAAATTTTCCTAATCTTTCTGTTCAAGCGCCATCTAC | 1 RPM ratio (pull-down/input) |
| GATGATTGTTCTCCCAGCTGATGAATTTAATGTATCGAGTAAACAAATTTTCCTAATCTTTCTGTTCAAGCGCCATCTAC | 1.18 RPM ratio (pull-down/input) |
| GATGATTGTTCTCCCAGCTGATGAATTTTTGCCCTCGAGTAAACAAATTTTCCTAATCTTTCTGTTCAAGCGCCATCTAC | 0.853 RPM ratio (pull-down/input) |
| GATGATTGTTCTCCCAGCTGATGAATTCCTGTCATCGAGTAAACAAATTTTCCTAATCTTTCTGTTCAAGCGCCATCTAC | 1.07 RPM ratio (pull-down/input) |
| GATGATTGTTCTCCCAGCTGATGAATTGGCGCTATCGAGTAAACAAATTTTCCTAATCTTTCTGTTCAAGCGCCATCTAC | 0.954 RPM ratio (pull-down/input) |
| GATGATTGTTCTCCCAGCTGATGAATTTCCACAGTCGAGTAAACAAATTTTCCTAATCTTTCTGTTCAAGCGCCATCTAC | 0.896 RPM ratio (pull-down/input) |
| GATGATTGTTCTCCCAGCTGATGAATTCCAAGGTTCGAGTAAACAAATTTTCCTAATCTTTCTGTTCAAGCGCCATCTAC | 0.837 RPM ratio (pull-down/input) |
| GATGATTGTTCTCCCAGCTGATGAATTCAGCCGTTCGAGTAAACAAATTTTCCTAATCTTTCTGTTCAAGCGCCATCTAC | 0.748 RPM ratio (pull-down/input) |
| GATGATTGTTCTCCCAGCTGATGAATTTGATCATTCGAGTAAACAAATTTTCCTAATCTTTCTGTTCAAGCGCCATCTAC | 0.921 RPM ratio (pull-down/input) |
| GATGATTGTTCTCCCAGCTGATGAATTCCTTATATCGAGTAAACAAATTTTCCTAATCTTTCTGTTCAAGCGCCATCTAC | 0.93 RPM ratio (pull-down/input) |
| GATGATTGTTCTCCCAGCTGATGAATTTATTAGTTCGAGTAAACAAATTTTCCTAATCTTTCTGTTCAAGCGCCATCTAC | 1.35 RPM ratio (pull-down/input) |
| GATGATTGTTCTCCCAGCTGATGAATTCAGAATGTCGAGTAAACAAATTTTCCTAATCTTTCTGTTCAAGCGCCATCTAC | 0.823 RPM ratio (pull-down/input) |
| GATGATTGTTCTCCCAGCTGATGAATTGCGGCACTCGAGTAAACAAATTTTCCTAATCTTTCTGTTCAAGCGCCATCTAC | 1.07 RPM ratio (pull-down/input) |
| GATGATTGTTCTCCCAGCTGATGAATTCCGTGGATCGAGTAAACAAATTTTCCTAATCTTTCTGTTCAAGCGCCATCTAC | 0.822 RPM ratio (pull-down/input) |

| Sequence | binding signal |
| --- | --- |
| GATGATTGTTCTCCCAGCTGATGAATTATTGGGCTCGAGTAAACAAATTTTCCTAATCTTTCTGTTCAAGCGCCATCTAC | 0.985 RPM ratio (pull-down/input) |
| GATGATTGTTCTCCCAGCTGATGAATTCGTTATATCGAGTAAACAAATTTTCCTAATCTTTCTGTTCAAGCGCCATCTAC | 0.975 RPM ratio (pull-down/input) |
| GATGATTGTTCTCCCAGCTGATGAATTGAAGGGGTCGAGTAAACAAATTTTCCTAATCTTTCTGTTCAAGCGCCATCTAC | 0.749 RPM ratio (pull-down/input) |
| GATGATTGTTCTCCCAGCTGATGAATTAACAGGTTCGAGTAAACAAATTTTCCTAATCTTTCTGTTCAAGCGCCATCTAC | 0.995 RPM ratio (pull-down/input) |
| GATGATTGTTCTCCCAGCTGATGAATTGGGGTGTTCGAGTAAACAAATTTTCCTAATCTTTCTGTTCAAGCGCCATCTAC | 0.867 RPM ratio (pull-down/input) |
| GATGATTGTTCTCCCAGCTGATGAATTTGGTAGATCGAGTAAACAAATTTTCCTAATCTTTCTGTTCAAGCGCCATCTAC | 0.856 RPM ratio (pull-down/input) |
| GATGATTGTTCTCCCAGCTGATGAATTTGCAGCATCGAGTAAACAAATTTTCCTAATCTTTCTGTTCAAGCGCCATCTAC | 1.09 RPM ratio (pull-down/input) |
| GATGATTGTTCTCCCAGCTGATGAATTGAGCGTCTCGAGTAAACAAATTTTCCTAATCTTTCTGTTCAAGCGCCATCTAC | 0.887 RPM ratio (pull-down/input) |
| GATGATTGTTCTCCCAGCTGATGAATTCCGATTATCGAGTAAACAAATTTTCCTAATCTTTCTGTTCAAGCGCCATCTAC | 0.972 RPM ratio (pull-down/input) |
| GATGATTGTTCTCCCAGCTGATGAATTCTCTCAGTCGAGTAAACAAATTTTCCTAATCTTTCTGTTCAAGCGCCATCTAC | 0.803 RPM ratio (pull-down/input) |
| GATGATTGTTCTCCCAGCTGATGAATTTTTCAAATCGAGTAAACAAATTTTCCTAATCTTTCTGTTCAAGCGCCATCTAC | 1.16 RPM ratio (pull-down/input) |
| GATGATTGTTCTCCCAGCTGATGAATTAGGCAGATCGAGTAAACAAATTTTCCTAATCTTTCTGTTCAAGCGCCATCTAC | 0.901 RPM ratio (pull-down/input) |
| GATGATTGTTCTCCCAGCTGATGAATTTCGACCATCGAGTAAACAAATTTTCCTAATCTTTCTGTTCAAGCGCCATCTAC | 0.827 RPM ratio (pull-down/input) |
| GATGATTGTTCTCCCAGCTGATGAATTGCACAGTTCGAGTAAACAAATTTTCCTAATCTTTCTGTTCAAGCGCCATCTAC | 1.17 RPM ratio (pull-down/input) |
| GATGATTGTTCTCCCAGCTGATGAATTCGCTTACTCGAGTAAACAAATTTTCCTAATCTTTCTGTTCAAGCGCCATCTAC | 0.979 RPM ratio (pull-down/input) |
| GATGATTGTTCTCCCAGCTGATGAATTGAGATGATCGAGTAAACAAATTTTCCTAATCTTTCTGTTCAAGCGCCATCTAC | 0.903 RPM ratio (pull-down/input) |
| GATGATTGTTCTCCCAGCTGATGAATTACAAGGCTCGAGTAAACAAATTTTCCTAATCTTTCTGTTCAAGCGCCATCTAC | 1.08 RPM ratio (pull-down/input) |
| GATGATTGTTCTCCCAGCTGATGAATTGCAAGCCTCGAGTAAACAAATTTTCCTAATCTTTCTGTTCAAGCGCCATCTAC | 0.99 RPM ratio (pull-down/input) |
| GATGATTGTTCTCCCAGCTGATGAATTCTAACCTTCGAGTAAACAAATTTTCCTAATCTTTCTGTTCAAGCGCCATCTAC | 0.9 RPM ratio (pull-down/input) |
| GATGATTGTTCTCCCAGCTGATGAATTACATTGTTCGAGTAAACAAATTTTCCTAATCTTTCTGTTCAAGCGCCATCTAC | 1.31 RPM ratio (pull-down/input) |
